The results in this text go back to PubChem BioAssay (NCATS).

A short description of the test: qHTS Assay for Lipid Storage Modulators (AID 1519). The conditions noted are these: Drosophila S3 cells, BODIPY lipid droplet/cell ratio, laser cytometry, cells loaded with oleic acid; for AC50: measured here: lipid (BODIPY) channel AC50. In short, it runs like this:
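Cells seeded at 5,000 per well were treated with compounds over a concentration series and loaded with oleic acid (400 uM, as added). Lipid droplet fluorescence (488 nm excitation, 500-530 nm channel) was read by laser-scanning cytometry and normalized to 20 uM Triacsin C.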
(Quantitative high-throughput screening tests each substance at several concentrations.)

[1] abbreviates: measured here: cell count channel max response.
The mark [2] stands for this setting: measured here: lipid channel max response.

This is one part of the list. These are further read-outs of the screen, such as a control signal, another cell line or another target. No call is given for them. The list favours compounds with an active or inconclusive main result. Potencies come from curve fits of mixed quality, noted in brackets.
Tags give direction and shape of the fitted curve.

As for `NC(=S)NCCCC(N)C(=O)O` (stereo not drawn), the max response is 34.8% under setting [1] and 30.6% under setting [2].

Turning to `CCn1c(=O)[nH]c2ccccc21`, the max response is, setting by setting: under setting [1], 30.7%; under setting [2], 38.4%.

With `CN(C(=O)c1c(O)c2ccccc2n(C)c1=O)c1ccccc1`, the max response under setting [1] was 55.9% and the max response under setting [2] came out at 65.8%.

For the compound `c1ccc(-c2ccccn2)nc1`, the max response is -12.2% under setting [1] and -9.36% under setting [2].

As to `OC1CCC2Cc3ccccc3N=C12` (stereo not drawn), the max response worked out at 25.7% under setting [1] and 37.1% under setting [2].

Broadly, the AC50 is the concentration giving half of the maximal activity seen. Consider `COc1c(-c2coc3cc4c(cc3c2=O)CC(O)C(C)(C)O4)ccc2c1C=CC(C)(C)O2` (stereo not drawn), for which the AC50 was 0.0631 µM [falling, full curve].

Turning to `CCCC[P+](CCCC)(CCCC)Cc1ccc(NC(=O)[C@@H](Cc2ccc3ccccc3c2)NC(=NC2CCCCC2)NC2CCCCC2)cc1`, the max response under setting [1] came out at 52.9% and the max response under setting [2] is -30.8%.

Take `CN1C2CCC1CC(OC(=O)C(O)c1ccccc1)C2` (stereo not drawn): the max response under setting [1] is 50% and the max response under setting [2] is 50.8%.

`CCCc1c(OCCCOc2ccc(OCC(=O)O)cc2)ccc(CC=O)c1O`: the max response runs as follows: under setting [1], 29%; under setting [2], 42.5%.

On to `COc1ccc(-c2nc3cnc(Nc4ccccc4)nc3n(C[C@H]3CCCO3)c2=O)cc1`, for which the AC50 is 10 µM [falling, partial curve].

Regarding `O=c1cc(-c2ccccc2)oc2cc(O[C@@H]3O[C@H](CO)[C@@H](O)[C@H](O)[C@H]3O)c(O)c(O)c12`, the max response came to 14.9% under setting [1] and 23.8% under setting [2].

On to `Cn1cccc1C(=O)N1CCC2(CCCN(c3cccc(-c4ccccc4)c3)C2)CC1`, for which the max response runs as follows: under setting [1], 24.3%; under setting [2], -37.6%.

As to `CN1CCc2cc(Cl)c(O)cc2C(c2ccccc2)C1` (stereo not drawn), the max response amounted to 41.8% under setting [1] and 41.1% under setting [2].

On to `OC[C@H]1NC[C@@H](O)[C@@H]1O`, for which the max response stood at 36.7% under setting [1] and 40.6% under setting [2].

In the case of `CCCCN1CCC(n2c(=O)[nH]c3ccccc32)CC1`, the max response by setting is: under setting [1], 47.1%; under setting [2], 45.7%.

Take `COc1ccc(-c2ccc(=N)n(CCCC(=O)O)n2)cc1`: the max response runs as follows: under setting [1], -1.49%; under setting [2], -1.66%.

Regarding `CCCCS(=N)(=O)CCC(N)C(=O)O` (stereo not drawn), the max response amounted to 29.6% under setting [1] and 24.5% under setting [2].

For the compound `NCCCCNS(=O)(=O)c1ccc2c(Cl)cccc2c1`, the max response under setting [1] worked out at 45.6% and the max response under setting [2] was found to be 55.9%.

For `CC(C)NC[C@H](O)COc1cccc2[nH]ccc12`, the max response under setting [1] stood at 69.9% and the max response under setting [2] was 73.1%.

On to `N[C@H](C(=O)O)c1cccc(O)c1`, for which the max response was 25.9% under setting [1] and 29.3% under setting [2].

Consider `NCCCCCCCCCCNS(=O)(=O)c1cccc2c(Cl)cccc12`, for which the max response by setting is: under setting [1], -0.0289%; under setting [2], -86.1%.

On to `C=CC(N)CCC(=O)O` (stereo not drawn), for which the max response reads like this: under setting [1], 31.6%; under setting [2], 32.4%.

Take `O=C(N/N=C\c1ccccc1O)c1ccccc1O`: the max response was determined as 89.6% under setting [1] and 99.1% under setting [2].

As to `CC(C)(C)NCC(O)COc1nsnc1N1CCOCC1` (stereo not drawn), the max response came out at 36.5% under setting [1] and 33.8% under setting [2].

Consider `NC1CCN(O)C1=O` (stereo not drawn), for which the max response reads like this: under setting [1], 43.4%; under setting [2], 46.1%.

For `CC(N)=NCCCC(N)C(=O)O` (stereo not drawn), the max response runs as follows: under setting [1], 39.4%; under setting [2], 42.2%.

With `C(=C/c1ccccc1)/CN1CCN(C(c2ccccc2)c2ccccc2)CC1`, the max response under setting [1] was -17.9% and the max response under setting [2] is -32.6%.

Take `O=C(O)/C=C/c1cnc[nH]1`: the max response under setting [1] turned out to be 41.1% and the max response under setting [2] was 34.6%.

For `NC(N)=NCCC[C@H](N)C(=O)O`, the max response under setting [1] was 41.7% and the max response under setting [2] turned out to be 42.6%.

As to `NCC(O)(CS(=O)(=O)O)c1ccc(Cl)cc1` (stereo not drawn), the max response under setting [1] is 34.7% and the max response under setting [2] worked out at 32%.

As for `Nc1ncnc2c1ncn2[C@@H]1O[C@H](C(=O)NC2CC2)[C@H](O)[C@H]1O`, the max response reads like this: under setting [1], 59.3%; under setting [2], 63.3%.

Regarding `CNc1ncnc2c1ncn2[C@H]1C[C@H](OP(=O)(O)O)[C@@H](COP(=O)(O)O)O1`, the max response under setting [1] is 50.1% and the max response under setting [2] stood at 49%.

In the case of `O=c1cc(-c2ccccc2O)oc2c1ccc1ccccc12`, the max response by setting is: under setting [1], 63.6%; under setting [2], 85.9%.

Consider `O=C(NCCN1CCCCC1)c1ccc(I)cc1`, for which the max response under setting [1] turned out to be 40.5% and the max response under setting [2] stood at 42.3%.

Turning to `CCN(CC)CCNC(=O)c1cc(Cl)c(N)cc1OC`, the max response reads like this: under setting [1], 41.6%; under setting [2], 44.6%.

As for `COc1ccc(-c2cc(=O)c3c(OC(C)=O)cc(OC(C)=O)cc3o2)cc1`, the max response was 5.67% under setting [1] and -21.3% under setting [2].

For `COC(=O)C(N)Cc1ccc(Cl)cc1` (stereo not drawn), the max response reads like this: under setting [1], 42.1%; under setting [2], 38.9%.

Consider `COc1cc(/C=C/C(=O)/C=C(O)/C=C/c2ccc(O)c(OC)c2)ccc1O`, for which the max response runs as follows: under setting [1], 15.3%; under setting [2], -20.1%.

With `[Li+]`, the max response by setting is: under setting [1], 51.8%; under setting [2], 55.2%.

As to `O=C(c1cccc(F)c1)N1CCC2(CCCN(c3cccc(-c4ccccc4)c3)C2)CC1`, the max response was 24.2% under setting [1] and -24.7% under setting [2].

On to `O=C(O)c1cc(=O)c2ccc(Cl)cc2[nH]1`, for which the max response by setting is: under setting [1], 54.1%; under setting [2], 42.9%.

On to `CN(C)CCC(c1ccc(Br)cc1)c1ccccn1` (stereo not drawn), for which the max response reads like this: under setting [1], 51.6%; under setting [2], 50.8%.

With `C=CC[C@H](N)C(=O)O`, the max response was found to be 33.5% under setting [1] and 34.4% under setting [2].

With `N[C@@H](C(=O)O)c1cc(O)ccc1Cl`, the max response by setting is: under setting [1], 70.5%; under setting [2], 90.5%.

On to `COc1ccc2[nH]cc(CCNc3ccnc(-c4ccc(N(C)C)cc4)n3)c2c1`, for which the max response runs as follows: under setting [1], -48.8%; under setting [2], -92.4%.

Consider `CN=C(NC#N)NCCSCc1nc[nH]c1C`, for which the max response is, setting by setting: under setting [1], 48.8%; under setting [2], 43.3%.

On to `O=c1c(-c2ccc(Cl)cc2)nc2cnc(N3CCNCC3)nc2n1Cc1ccc(F)cc1`, for which the max response under setting [1] was -32.1% and the max response under setting [2] is -50.8%.

`Cc1cccc(C)c1NC(=O)C[N+](C)(C)C`: the max response under setting [1] came out at 41.9% and the max response under setting [2] worked out at 43%.

On to `CN1CCN(c2ncc3nc(-c4cccs4)c(=O)n(Cc4ccc(F)cc4)c3n2)CC1`, for which the max response under setting [1] is 28.2% and the max response under setting [2] was -14.9%.

`NCCSSCCN`: the max response came out at 50.2% under setting [1] and 49.6% under setting [2].

As to `COc1ccc(C(=O)N2CCC3(CCCN(c4ccc(-c5ccccc5)cc4)C3)CC2)cc1`, the max response under setting [1] came to 10.5% and the max response under setting [2] is -92.3%.

Regarding `Cc1nc(N=Nc2cc(S(=O)(=O)O)c3cc([N+](=O)[O-])cc(S(=O)(=O)O)c3c2)c(COP(=O)(O)O)c(C=O)c1O`, the max response stood at 38.8% under setting [1] and 36% under setting [2].

On to `CCCCCCCCCC[Si](C)(C)CCC(=O)NC(Cc1ccc(C)cc1)c1ccccc1` (stereo not drawn), for which the max response under setting [1] is 37.5% and the max response under setting [2] was determined as 38.5%.

On to `CC1(C)C(=O)C=C[C@]2(C)C1CC(=O)[C@]1(C)C2CC[C@@]2(C)C(c3ccoc3)OC(=O)C3O[C@@]321` (stereo partly drawn), for which the max response was -5.72% under setting [1] and -26.2% under setting [2].

For the compound `N[C@H](Cn1ccc(=O)n(Cc2ccccc2C(=O)O)c1=O)C(=O)O`, the max response by setting is: under setting [1], 26.7%; under setting [2], 30.7%.

`CC[N+](CC)(CC)CCOc1ccc(/C=C\c2ccccc2)cc1`: the max response by setting is: under setting [1], 25.2%; under setting [2], -19.1%.

Turning to `CC(=O)N1CCC2(CCCN(c3cccc(-c4ccccc4)c3)C2)CC1`, the max response is -1.99% under setting [1] and -40.1% under setting [2].

In the case of `NC/C=C/C(=O)O`, the max response under setting [1] worked out at 49.3% and the max response under setting [2] was 53.2%.

As to `O=c1oc2c(O)c(O)cc3c(=O)oc4c(O)c(O)cc1c4c23`, the max response by setting is: under setting [1], 8.02%; under setting [2], 8.92%.

With `COc1ccc2[nH]cc(CCNc3nc(-c4ccc(N(C)C)cc4)nc4ccccc34)c2c1`, the max response reads like this: under setting [1], -34.6%; under setting [2], -47.6%.
